This experiment concerns NCI-H322M lung. Put plainly: DTP human tumour cell line panel, 48 h.

Two compounds from PubChem BioAssay (NCI) can be followed below.

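Each compound was tested at five concentrations against cells in 96-well plates for 48 hours. GI50: concentration for 50% inhibition of growth. The concentration for full growth arrest is given as TGI.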

In the case of `Cc1ccc2nc(-c3ccc(-c4nnc(SCC(=O)Nc5ccc(Cl)cc5)o4)cc3)[nH]c2c1`, the GI50 (commonly the concentration that inhibits growth by half) is 9.57 µM and the TGI (in general, the concentration at which net growth stops) came to 23.6 µM.

For the compound `COc1ccc(C(=O)/C=C/c2cccc3ccccc23)cc1S(N)(=O)=O`, the GI50 is 2.6 µM and the TGI amounted to 9.38 µM.
